Assay results published in PubChem BioAssay AID2546 (National Center for Advancing Translational Sciences (NCATS), 2010).
Screen size: about 310,000 compounds; about 11,000 (3.5%) were called active. Inconclusive means that the source gave no clear call. Such entries were picked first, then a sample of the others. The call rests on the fitted dose curve; in most records, active means well fitted inhibition curve with a large enough effect; inconclusive means small, poorly fitted or top-dose-only effect, or effect the other way; inactive means flat fitted curve, though single readings scatter. Potencies of inconclusive entries are left out as doubtful fits.

assay: VP16 counterscreen qHTS for inhibitors of ROR gamma transcriptional activity; details: Drosophila S2 Gal4-VP16 UAS-luciferase, luminescence, 20 h; series mostly up to 53.6 µM;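 further: Gal4-VP16 expression switched on by copper sulfate through the metallothionein promoter; nearly all actives have a fitted effect of over 50% in size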
Potency means the concentration at half of the fitted maximal effect; tags describe the fitted curve by direction and shape.

SMILES | Potency
CSCCC(NC(=O)c1ccccc1)C(=O)NC1CCCC1 (stereo not drawn) | inactive
O=C(CNC(=O)c1ccc(-c2ccccc2)cc1)OCc1c(Cl)cccc1Cl | inconclusive [inhibitor, single point]
COc1ccc(CCN2C(=O)c3[nH]nc(-c4ccccc4O)c3C2c2cccc(Cl)c2)cc1 (stereo not drawn) | inconclusive [inhibitor, single point]
CC(C)(C)n1nnnc1CN1CCN(C(c2ccccc2)c2ccccc2)CC1 | inconclusive [inhibitor, partial curve]
COc1ccc(-c2cc(C(=O)Oc3ccc([N+](=O)[O-])cc3)c3ccccc3n2)cc1 | inconclusive [inhibitor, single point]
CCOC(=O)C1(CCCc2ccccc2)CCN(C(=O)c2cnn(CC)c2)CC1 | inactive
CCOC(=O)c1c(C)nc(C)c(C(=O)OCC)c1-c1ccc(O)c(OC)c1 | inactive
CC1(C)CC(=O)C(N=Nc2cc(Cl)c(Cl)c(Cl)c2)=C(O)C1 | inconclusive [inhibitor, single point]
CSc1nccc(NC(=O)c2ccc(C(C)(C)C)cc2)n1 | inconclusive [inhibitor, single point]
O=c1c2c(nc3c(-c4ccccc4)c[nH]n13)CCC2 | inconclusive [inhibitor, single point]
Cc1ccc(CSc2ccc(-c3ccc4c(c3)OCO4)nn2)cc1 | inactive
O=C(CSc1ncn[nH]1)c1cccc([N+](=O)[O-])c1 | inconclusive [inhibitor, single point]
CCCCCCCCCCCCCc1ccco1 | inactive
CC(C)(C)OC(=O)[C@H](Cc1ccccc1)NC(=O)c1[nH]cnc1C(=O)N[C@@H](Cc1ccccc1)C(=O)OCc1ccccc1 | inconclusive [inhibitor, single point]
NNc1ccccc1C(F)(F)F | inconclusive [activator, single point]
CC1(C)CC2CC(C)(CN2Cc2c(O)ccc3ccccc23)C1 (stereo not drawn) | inactive
Cn1c(/C(C#N)=C(\O)c2ccc(Br)s2)nc2ccccc21 | inconclusive [inhibitor, partial curve]
Cc1ccc(-c2c(C(=O)N/N=C/c3ccncc3)nnn2-c2nonc2N)cc1 | inconclusive [inhibitor, partial curve]
COc1ccc(CC(=O)Nc2ccc(-c3noc(-c4ccccc4OC)n3)cc2)cc1 | inactive
CCCCc1nnc(NC(=O)COC)s1 | inconclusive [activator, single point]
Cc1cc(Nc2cccc(Cl)c2Cl)n2ncnc2n1 | inconclusive [inhibitor, single point]
CCOC(=O)Cn1c(=NC(=O)CC)sc2c(C)cc(C)cc21 | inactive
CCc1c(C)sc(NC(=S)Nc2nc(C)cc(C)n2)c1C(=O)OC | inactive
CCCn1c(=O)c(C(=O)NCc2ccccn2)c(O)c2ccccc21 | inconclusive [inhibitor, single point]
CN(C)c1nc(=Nc2cccc(Cl)c2)ss1 | active: 0.891 µM

SMILES | Potency
Cc1cc(C)cc(-n2c(N)c(C(=O)Nc3c(C)n(C)n(-c4ccccc4)c3=O)c3nc4ccccc4nc32)c1 | inconclusive [inhibitor, full curve, poor fit]
CCN(CC)S(=O)(=O)c1ccc2c(c1)C(=NO)c1cc(S(=O)(=O)N(CC)CC)ccc1-2 | inconclusive [inhibitor, single point]
Cc1ccc2nc(-c3ccc(NS(=O)(=O)c4ccc(F)c(F)c4)cc3)sc2c1 | inconclusive [inhibitor, partial curve, poor fit]
COc1ccc(/C=C(/CC(=O)Nc2ccc(C)cc2)c2nc3ccccc3s2)cc1 | inconclusive [activator, single point]
Cc1ccc(N2CCN(S(=O)(=O)c3ccc(Cl)s3)CC2C)cc1 (stereo not drawn) | inconclusive [inhibitor, partial curve]
CC1CCN(c2ccccc2NC(=S)NC(=O)C(C)(C)C)CC1 | inconclusive [inhibitor, full curve]
Cc1[nH]c2ccc(-c3n[nH]c(=S)n3-c3ccccc3)cc2c1C | inconclusive [inhibitor, partial curve]
Cc1cccc(NC(=S)NC2CC3CCCC(C2)N3Cc2ccccc2)c1C (stereo not drawn) | inconclusive [inhibitor, single point]
Fc1ccc(NC(=S)NC2CCCCC2)c(F)c1F | active: 7.08 µM
Cn1c(CSc2nnc(SCc3ccccc3)s2)nc2ccccc21 | inconclusive [inhibitor, single point]
Cc1c(C(=O)Nc2ccc3c4c(cccc24)CC3)cccc1[N+](=O)[O-] | inactive
CC(O)CNCc1ccc(-c2ccccc2)cc1 (stereo not drawn) | inactive
O=C(Cc1csc(Nc2nc(=S)[nH]c3ccccc23)n1)N1CCN(c2cccc(C(F)(F)F)c2)CC1 | active: 7.08 µM
CCOC(=O)C1=C(CNCCOc2ccc(OC)cc2)NC(=O)NC1c1ccc2c(c1)OCO2 (stereo not drawn) | inactive
O=C(O)c1ccc(NS(=O)(=O)c2ccc3c(c2)C(=O)c2ccccc2C3=O)cc1 | inactive
CCN(CC)S(=O)(=O)c1ccc(-c2ccc(S(=O)(=O)N(CC)CC)cc2)cc1 | inconclusive [inhibitor, single point]
COc1cc(/C=N\NC(=O)c2ccc(-c3ccccc3)cc2)cc(Br)c1O | inconclusive [inhibitor, single point]
O=C(O)CCC(=O)Nc1cccc(-c2csc(-c3ccccc3)n2)c1 | inconclusive [inhibitor, partial curve]
COc1ccc(Br)cc1CN1CCCCCCC1 | inactive
CCOc1ccc(/C=C2\SC(=S)N(CC(=O)N(CCO)C(C)(C)C)C2=O)cc1 | active: 11.2 µM
CC[n+]1ccc(/C=C/c2c[nH]c3ccccc23)cc1 | active: 12.6 µM
O=C(/C=C/c1ccccc1Br)c1ccc2c(c1)OCO2 | inconclusive [inhibitor, partial curve, poor fit]
COc1ccc(C(=O)NC2CCCc3c2cnn3-c2cccc(C)c2C)c(OC)n1 (stereo not drawn) | active: 12.6 µM
CC(C)(C)c1cc(C(=O)/C=C/c2ccc(C(=O)O)cc2)cc(C(C)(C)C)c1 | inconclusive [inhibitor, single point]
Fc1ccc2c(c1)C(c1ccncc1)=NNC(c1ccccc1)=N2 | inconclusive [inhibitor, partial curve]

SMILES | Potency
Cc1cccc(N2CCN(C(=O)Cc3ccc(-n4c(=O)[nH]c5ccsc5c4=O)cc3)CC2)c1C | inactive
COc1cccc(C(=O)NC(=S)NCc2ccco2)c1 | inconclusive [inhibitor, single point]
COc1ccc(-c2[nH]n(-c3ccc([N+](=O)[O-])cc3)c(=O)c2C=NCc2ccccc2)cc1 | inconclusive [activator, single point]
CCC(C(=O)NCc1ccco1)N(C(=O)CNS(=O)(=O)c1ccccc1)C1CCCCC1 (stereo not drawn) | inactive
CC(=O)Nc1ccc(NC(=O)CSc2ccc3nnc(-c4cccnc4)n3n2)cc1 | inactive
COc1ccc(-n2nc3cc(C)c(NC(=S)NC(=O)c4ccccc4C)cc3n2)cc1 | inconclusive [inhibitor, partial curve]
Cc1ccc(-c2csc(=Nc3cccnc3)n2CCCn2ccnc2)cc1C | inconclusive [inhibitor, single point]
O=C(CSc1ccc(-c2cccs2)nn1)c1cccs1 | inconclusive [activator, single point]
O=C(Nc1ccccc1F)C1COc2ccccc2O1 (stereo not drawn) | inactive
Cc1ccc(NC(=O)c2cnc(N3CCN(c4ccccn4)CC3)c3ccccc23)c(Br)c1 | inconclusive [inhibitor, partial curve]
Cc1ccccc1OCC(=O)NCCCNC(=O)c1ccco1 | inconclusive [inhibitor, single point]
O=c1[nH]n(-c2cccc3cccnc23)c(=O)c2ccccc12 | inactive
O=C(O)CC1(CC(=O)NCc2ccc(F)cc2)CCCCC1 | inactive
CN(c1ccc(C(=O)Nc2ccccn2)cc1)S(=O)(=O)c1ccccc1 | inconclusive [activator, single point]
COc1cc(/C=N/NC(=O)c2ccncc2)cc(OC)c1OC | inactive
Cc1nn(-c2ccccn2)c2c1C(c1ccccc1Cl)C1=C(N2)c2ccccc2C1=O (stereo not drawn) | inconclusive [inhibitor, full curve]
CC(C)N(Cc1nc(-c2ccc(Cl)cc2)no1)C(=O)/C=C/c1ccccc1 | inconclusive [inhibitor, single point]
Oc1c(CN2CCc3ccccc3C2)cc(Cl)c2cccnc12 | active: 1.12 µM
COc1ccc(C(=O)NCCc2nnc(SCc3nc4ccccc4c(=O)[nH]3)n2C)cc1 | inactive
Cn1c(=O)c2c(nc(N/N=C/c3ccc(OC(=O)c4ccco4)cc3)n2Cc2ccccc2)n(C)c1=O | inconclusive [inhibitor, single point]
O=C(N/N=C\c1ccc([N+](=O)[O-])s1)c1cncc(Br)c1 | active: 1.12 µM
O=C(CNC(=O)c1ccco1)NCCCc1ccccc1 | inactive
COc1ccccc1N=Cc1c(O)c2ccccc2oc1=O | inconclusive [inhibitor, partial curve]
